Among all 260,000 compounds or so, about 150 (0.058%) were called active. This list was built around the results that the source calls inconclusive (neither active nor inactive); the mix of calls is not that of the screen. Calls follow the shape of the dose curve; as a rule, active = well fitted inhibition curve with a large enough effect; inconclusive = small, poorly fitted or top-dose-only effect; inactive = no such curve, though single readings can be large or run the other way. No potency is given beside an inconclusive call; the fits are too rough.
What follows are compounds tested against Pyruvate kinase PKM (Homo sapiens) (UniProt P14618) (assay: qHTS Assay for Inhibitors of Human Muscle isoform 2 Pyruvate Kinase). Settings: purified PKM2, ATP generation, Kinase-Glo luminescence; series mostly up to 57.5 µM.
Sequence of UniProt P14618 (P14618 whole entry, looked up, canonical isoform): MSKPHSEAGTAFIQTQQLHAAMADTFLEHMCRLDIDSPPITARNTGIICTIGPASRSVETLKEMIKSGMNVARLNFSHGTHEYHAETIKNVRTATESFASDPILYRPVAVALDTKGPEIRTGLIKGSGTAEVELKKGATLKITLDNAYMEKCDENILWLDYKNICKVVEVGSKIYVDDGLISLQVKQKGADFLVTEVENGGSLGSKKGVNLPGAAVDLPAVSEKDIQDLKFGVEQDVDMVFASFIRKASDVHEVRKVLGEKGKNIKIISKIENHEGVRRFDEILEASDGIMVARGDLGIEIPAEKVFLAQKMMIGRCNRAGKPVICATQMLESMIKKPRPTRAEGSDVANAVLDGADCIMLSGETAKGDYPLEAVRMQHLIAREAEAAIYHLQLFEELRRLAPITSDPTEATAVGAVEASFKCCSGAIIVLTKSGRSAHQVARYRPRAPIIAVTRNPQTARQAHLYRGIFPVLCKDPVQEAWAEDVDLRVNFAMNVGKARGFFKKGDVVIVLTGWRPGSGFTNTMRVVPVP
Procedure, shortened: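 Coupled luciferase luminescence (Kinase-Glo) detects ATP generated from 0.1 mM ADP and 0.5 mM PEP in imidazole buffer pH 7.2 with KCl, MgCl2; 1 h at room temperature. Enzyme at intermediate activity; normalized to uninhibited and no-enzyme controls.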
Also: nearly all actives have a fitted effect of over 60% in size.
Potency is read from the fitted curve at half-maximal effect; tags tell the direction and shape of the fitted curve.

Structure (SMILES)	Potency
O=S(=O)(/C=C/c1ccccc1)Nc1ccc(F)cc1	inconclusive [falling, single point]
O=C(NCc1ccc(Cl)cc1Cl)C1CCN(S(=O)(=O)c2ccc3c(c2)OCCCO3)CC1	inactive
CC1(C)CC(NC(=O)COc2ccc([N+](=O)[O-])cc2)CC(C)(C)N1	inconclusive [falling, single point]
CC(C)NC(=O)Nc1n[nH]c(Nc2ccc(Cl)cc2)n1	inconclusive [falling, single point]
CSc1sc(C(=O)NNC(C)=O)c2c1C1(CCC2)SCCS1	inconclusive [falling, single point]
Cc1cc(=O)[nH]c(NCCO)n1	inactive
COc1cccc(NC(=O)CSc2nnc(C)s2)c1	inactive
COc1ccc2[nH]c3c(=O)n(Cc4ccc(C(=O)N5CCC(C(N)=O)CC5)cc4)c(=S)[nH]c3c2c1	inconclusive [falling, partial curve]
CC(CNC(=O)CCS(=O)(=O)c1cc2c(cc1Cl)NC(=O)CO2)c1ccccc1 (stereo unspecified)	inconclusive [falling, partial curve]
COc1cc(/C=C2/C(=O)c3cccc([N+](=O)[O-])c3C2=O)c(Br)cc1O	inconclusive [falling, single point]
O=C1c2oc3ccc(Cl)cc3c(=O)c2C(c2cccc(Br)c2)N1CCO (stereo unspecified)	inactive
Cc1onc(-c2ccccc2)c1C(=O)Nc1ccc(S(=O)(=O)NC2=NCCCCC2)cc1	inconclusive [falling, single point]
CN(C)c1nc(N)nc(CSc2nnnn2-c2ccccc2)n1	inactive
O=C(c1ccccc1)N1CCCN(c2nccc(C(F)(F)F)n2)CC1	inconclusive [falling, single point]
NC(=S)c1ccc(C(N)=S)o1	inactive
Cn1nc(C(=O)NCc2ccccc2)c2ccccc2c1=O	inconclusive [falling, full curve, poor fit]
COc1cc(C(=O)OCC(=O)Nc2cc(C)on2)c([N+](=O)[O-])cc1OC	inactive
CC(=O)Nc1ccc(S(=O)(=O)Nc2nc3ccccc3nc2Nc2ccc(O)c(C(=O)O)c2)cc1	inconclusive [falling, single point]
O=C(Cc1cccs1)N1CCCC(c2nc3c(nnn3Cc3cccc(Cl)c3)c(=O)[nH]2)C1 (stereo unspecified)	inactive
COC(=O)Nc1nc(-c2ccc(F)cc2)c(C)s1	inactive
O=S(=O)(c1ccccc1)c1cnc(-c2cccnc2)nc1-c1ccc(Cl)cc1Cl	inconclusive [falling, single point]
Nc1nccnc1C(=O)N/N=C/c1ccco1	inconclusive [falling, partial curve]
c1ccc(-c2nc(-c3ccccn3)no2)cc1	inconclusive [falling, partial curve, poor fit]
COc1cccc(NC(=O)CNC(=O)c2ccc(C)cc2)c1	inconclusive [falling, single point]
COc1cccc(CC2(CO)CCCN(C(=O)c3cc[n+]([O-])cc3)C2)c1 (stereo unspecified)	inactive
COc1ccccc1C(=O)Nc1nc2ccccc2s1	inconclusive [falling, partial curve]

Structure (SMILES)	Potency
CCN1/C(=C/c2ccc3ccc(C)cc3[n+]2CC)Sc2ccccc21	inconclusive [falling, partial curve]
O=S(=O)(c1ccccc1F)N1CCN(C(=S)NCc2ccccc2)CC1	inactive
COc1ccc(N2C(=O)/C(=C/c3cccs3)NC2=S)cc1	inconclusive [falling, single point]
N/C(=N\OC(=O)c1ccc(Cl)cc1Cl)c1ccccn1	active: 14.1 µM
CN(C)c1ccc(/C=N/NC(=O)c2ccnn2C)cc1	active: 7.94 µM
Cc1cc(-c2cc(-c3ccc(Cl)cc3)nc(N)c2C#N)co1	inactive
Cn1cc([N+](=O)[O-])c(C(=O)Nc2ccc3c(c2)OCCO3)n1	inconclusive [falling, single point]
COc1ccc(NC(=S)NCc2cccs2)cc1OC	inconclusive [falling, single point]
O=C(Nc1cccc(C(=O)O)c1)/C(=C\c1ccco1)NC(=O)c1ccc(Br)o1	inactive
COc1ccc(Nc2nc(NCc3ccco3)nc(N)c2[N+](=O)[O-])cc1	inconclusive [falling, single point]
Cn1c2c(c(=O)n(C)c1=O)C(c1ccccc1OC(F)F)C1=C(CCCC1=O)N2 (stereo unspecified)	inconclusive [falling, single point]
Cc1ccc2c(c1)Cc1nc3ccccc3nc1-2	inconclusive [falling, partial curve]
COc1ccc(C(=O)O/N=C(/C)c2cccs2)cc1	active: 14.1 µM
O=C(N/N=C/c1ccc2c(c1)OCO2)c1ccccn1	inconclusive [falling, partial curve]
CN(C)c1ccc(N=Nc2nc3ccccc3n2C)cc1	active: 15.8 µM
Cc1occc1C(=O)Nc1ccc2c(c1)CCC2	inconclusive [falling, partial curve]
CC(C)CN1C(=O)C(=Nc2cccnc2)c2ccccc21	inconclusive [falling, single point]
O=C(COC(=O)C1CC(=O)N(Cc2ccccc2)C1)Nc1ccc(Cl)cc1F (stereo unspecified)	inconclusive [falling, single point]
O=C(Nc1ccc(NC(=O)C2CC2)nc1)c1ccccn1	inconclusive [falling, partial curve]
S=C(Nc1ccc(Br)cc1Cl)NN1CCOCC1	inconclusive [falling, single point]
COc1cccc(/C=N/NC(=O)c2ccoc2C)c1O	inconclusive [falling, partial curve]
COCCCNC(=S)N1CCN(S(=O)(=O)c2ccc(OC)cc2)CC1	inactive
Cc1c(C(=O)OCc2ccccc2)nnn1-c1nonc1N	inactive
COC(=O)c1cc2c(N)c(C(=O)c3ccc(Cl)cc3)sc2nc1C(OC)OC	inactive
COc1cc(S(=O)(=O)NC2CCCCC2)ccc1Cl	inactive
C/C(=N\NC(=O)CSCc1ccccc1Cl)c1cc(O)ccc1O	inactive

Structure (SMILES)	Potency
CCOC(=O)Cc1ccc2sc(-c3ccccc3)nc2c1	inconclusive [falling, single point]
COc1cc(C(=O)Nc2cc(-c3ccccc3)[nH]n2)cc(OC)c1OC	inactive
Clc1ccc(/C=C/c2nc3ccccc3[nH]2)c(Cl)c1	inconclusive [falling, partial curve]
Cc1cccc(C(=O)n2c(=S)nc3ccccn32)c1	inconclusive [falling, partial curve]
Nc1nc(Nc2ccccc2)nc2ccccc12	inconclusive [falling, partial curve]
CCOC(=O)c1c(CSc2ccccc2)oc2cc(Br)c(O)c(CN(C)C)c12	inactive
C(=N\Nc1nc2ccccc2[nH]1)/c1cccs1	inconclusive [falling, partial curve]
C/C(=N\NC(=O)c1ccc2c(c1)OCCO2)c1ccccc1	inconclusive [falling, partial curve]
CN(C)C(=S)N=Nc1[nH]c2ccccc2c1O	inconclusive [falling, single point]
CCCOc1ccccc1NC(=O)/C=C/C(N)=O	inactive
O=C(COC(=O)c1cccc([N+](=O)[O-])c1)NCc1cccs1	inconclusive [falling, single point]
Cc1ccc(Nc2nc(NCCO)c3ccccc3n2)cc1C	inconclusive [falling, single point]
O=C(Oc1csc(=S)n1C(=O)c1ccccc1)c1ccccc1	inconclusive [falling, single point]
Cc1ccc(-c2csc3n[nH]c(=S)n23)cc1	inconclusive [falling, single point]
CC(C)NC(=O)CNc1ccc(C(F)(F)F)cc1[N+](=O)[O-]	inconclusive [falling, single point]
CCn1c(=O)c2cc(C(=O)N3CCCC3)sc2c2ccccc21	inconclusive [falling, single point]
Nc1ccc2nc(CCCCCCc3nc4ccc(N)cc4[nH]3)[nH]c2c1	inactive
O=C(c1cccc(S(=O)(=O)Nc2ccc(Br)cc2)c1)N1CCC1	inactive
CCOC(=O)C1CSC(CC(=O)Nc2ccc(OC(F)(F)F)cc2)C(=O)N1 (stereo unspecified)	inconclusive [falling, single point]
Cc1ccc(-c2cnco2)cc1	inconclusive [falling, single point]
CC(C)S(=O)(=O)c1csc(NC(=O)Nc2cccc([N+](=O)[O-])c2)c1Cl	inconclusive [falling, single point]
O=C(N/N=C/c1ccncc1)c1cc([N+](=O)[O-])cc([N+](=O)[O-])c1O	inactive
CCn1c(C)cc(/C=C2/SC(=S)N(CC(=O)O)C2=O)c1C	inconclusive [falling, single point]
CS(=O)(=O)c1ccc2nc(NC(=O)c3ccc(N4CCCC4=O)cc3)sc2c1	inconclusive [falling, single point]
